Measurements reported in PubChem BioAssay AID463173 (ICCB-Longwood Screening Facility, Harvard Medical School, 2010).
The campaign covered roughly 52,000 compounds. About 4,300 (8.3%) were called active. Rule as the data show it: active = survival mostly below about 52% (no sharp cut-off); inactive = mostly above about 56%. The list shows a part of the results.

The molecules below were run on DeltatarO mutant (assay: growth inhibition of S. aureus wild type versus tarO mutant, primary screen, teichoic acid synthesis inhibitors, RN4220, OD600 (AID 463173)). Conditions: OD600, 18 h, stronger effect = lower value, screened at 18.75 µg/mL (by protocol).
In the case of `Cc1sc2ncn(CC(=O)N3CCC(C)CC3)c(=O)c2c1C`, the survival is reported as inactive: 77%.
With `O=C(CSc1nnnn1Cc1ccccc1)c1ccccc1` the survival was inactive: 81%.
In the case of `COc1ccc(OC)c(NC(=O)c2noc3c2CCCC3)c1`, the survival is reported as inactive: 99%.
With `CCOC(=O)Cc1ccc(NC(=O)N2CCOc3ccc(C)cc32)cc1` the survival was inactive: 80%.
For `CC1=C(c2ccc(C)c(C)c2)S(=O)(=O)N(Cc2ccc(C(=O)NCc3cccc(C)c3)cc2)C1=O`, the survival was inactive: 77%.
`Cc1cccc(NC(=O)c2oc3ccccc3c2NC(=O)Cc2coc3c(C)c(C)ccc23)c1` was tested, and the survival was inactive: 62%.
For `CCC(C(=O)Nc1cc(Cl)ccc1OC)n1nc(-c2ccccc2)ccc1=O` (stereo not given), the survival was active: 24%.
For `Cc1ccc(Nc2c(-c3c[nH]c4ccccc34)nc3cc(C)ccn23)cc1`, the survival was active: 80%.
`COc1cc(OC)c(OC)cc1/C=C/c1nc2cc3ccccc3cc2c(=O)n1-c1ccc(Cl)cc1` was tested, and the survival was inactive: 83%.
With `CCOc1ccccc1NC(=O)CSc1nc2c(oc3ccccc32)c(=O)n1-c1ccc(C)c(C)c1` the survival was inactive: 88%.
For `COc1ccc(-c2nn3c(=O)cc(CN4CCN(C(=O)c5ccc(C(C)(C)C)cc5)CC4)nc3s2)cc1`, the survival was inactive: 91%.
With `CC(C)OCCCNC(=O)c1ccc2c(c1)N(Cc1c(F)cccc1Cl)C(=O)c1ccccc1S2` the survival was inactive: 76%.
For `COc1ccc(C(=O)NCC(c2cccnc2)N2CCc3ccccc32)cc1` (stereo not given), the survival was active: 46%.
With `Cc1ccc(Oc2c(C(F)(F)F)oc3c(CN4CCCCC4C)c(O)ccc3c2=O)cc1` (stereo not given) the survival was inactive: 58%.
In the case of `CCn1c(NCc2cccc(Cl)c2)nc2ccccc21`, the survival is reported as inactive: 102%.
With `COc1cccc(C(=O)NC2=NC(c3ccc(N(C)C)cc3)CC(=O)N2)c1` (stereo not given) the survival was inactive: 56%.
For `O=C(CSc1nc(-c2ccccc2)cn1-c1ccccc1)Nc1ccccc1`, the survival was inactive: 83%.
In the case of `COc1cc(-c2nc3ccc(C)cn3c2Nc2ccc(Cl)cc2)ccc1O`, the survival is reported as inactive: 42%.
With `O=C(NCCCN1CCCCC1)c1cc(Sc2ccc(Cl)cc2)nc2ccccc12` the survival was active: 17%.
In the case of `COc1cccc(-c2nnc3n(Cc4ccccc4Cl)c(=O)c4ccccc4n23)c1O`, the survival is reported as inactive: 91%.
In the case of `O=C(NCc1ccc2c(c1)CCN2C(=O)c1ccncc1)c1ccc(Cl)cc1`, the survival is reported as inactive: 95%.
With `CC(C)Oc1ccc(CNC(=O)CCCn2c(=O)c3cccn3c3cccnc32)cc1` the survival was inactive: 111%.
`Cc1ccc(S(=O)(=O)Nc2c(C)nn(C)c2C)cc1` was tested, and the survival was inactive: 89%.
In the case of `COCCN(CCOC)C(=O)c1cc2c(=O)n3ccccc3nc2n1C`, the survival is reported as inactive: 51%.
`Cc1c(Cl)cccc1NC(=O)CN1C(=O)CCn2nc(-c3cccn3C)cc21` was tested, and the survival was inactive: 74%.
With `O=S(=O)(c1ccc(Br)cc1)c1nnn2c1nc(NCc1cccs1)c1sccc12` the survival was inactive: 66%.
With `CC(=O)c1ccc(N2CCN(C3C(=O)c4ccccc4N3C(C)=O)CC2)cc1` (stereo not given) the survival was inactive: 71%.
With `COc1ccc(-c2cc(C(=O)NCCc3ccccc3)c3cc(C(C)C)ccc3n2)cc1` the survival was inactive: 76%.
`COc1ccc(Cl)cc1NC(=O)c1nn(C)c2c1CS(=O)(=O)c1ccccc1-2` was tested, and the survival was inactive: 53%.
For `CCOc1cc(-c2nc(-c3ccc(-c4ccc(OC)cc4)nc3OC)no2)cc(OCC)c1OCC`, the survival was inactive: 75%.
`COCCCNC(=O)C1CCN(c2cc(C)nc3c(-c4ccc(OC)c(OC)c4)c(C)nn23)CC1` was tested, and the survival was inactive: 68%.
For `CC(=O)N/N=C/c1ccc(C)c(C)c1C`, the survival was inactive: 83%.
For `COc1ccc(-n2cc(C(=O)NCc3cccc(OC)c3)c3ccccc3c2=O)cc1`, the survival was inactive: 110%.
For `Cc1cc(C)c(C(=O)Nc2ccccc2)c(SCC(=O)Nc2ccc(Br)cc2C)n1`, the survival was active: 38%.
In the case of `Cc1ccc(Cn2c(C(=O)O)c(CNCCc3ccco3)c3ccc(C)cc32)cc1`, the survival is reported as inactive: 81%.
`COc1ccc(-n2c(=O)c3ccc(C(=O)NCc4ccc(C)cc4)cc3n(CC(=O)Nc3ccc(C)cc3)c2=O)cc1` was tested, and the survival was inactive: 81%.
With `O=C1C2C3C=CC(C3)C2C(=O)N1CN(Cc1ccccc1)CN1C(=O)C2C3C=CC(C3)C2C1=O` (stereo not given) the survival was inactive: 77%.
`O=c1[nH]c(SCc2ccc(Br)cc2)nc2c1CCCC2` was tested, and the survival was inactive: 52%.
With `Cc1ccc(S(=O)(=O)c2nnn3c2nc(N2CCN(c4ccccc4F)CC2)c2ccccc23)cc1C` the survival was inactive: 77%.
`CC(NC(=O)Cn1c(-c2cccs2)cc2cc(F)ccc21)c1ccccc1` (stereo not given) was tested, and the survival was inactive: 94%.
For `CC1=C(C(=O)Nc2ccccc2C)C(c2ccccn2)n2nc(SCc3ccccc3F)nc2N1` (stereo not given), the survival was inactive: 60%.
For `O=C(CN1CCC(N2CCCCC2)CC1)c1ccc(F)cc1`, the survival was inactive: 96%.
With `O=C(CSc1nc(=O)n(Cc2ccco2)c2c1CCC2)NCc1ccc(F)cc1` the survival was inactive: 101%.
For `COc1ccc2nc(NC(=O)c3ccc(S(=O)(=O)N4CCCC(C)C4)cc3)sc2c1` (stereo not given), the survival was inactive: 102%.
For `N/C(=N\OC(=O)c1cccs1)c1ccccc1`, the survival was inactive: 87%.
For `Cc1nc2nc(NC(=O)c3ccc(Cl)cc3)[nH]n2c(=O)c1Cc1ccccc1`, the survival was inactive: 105%.
`CCc1ccc(NC(=O)CSc2nc(=O)n(Cc3ccco3)c3c2CCC3)cc1` was tested, and the survival was inactive: 90%.
With `Cc1cccc(-n2c3nc(=O)n(C)c(=O)c-3cc3ccc(Cl)cc32)c1C` the survival was inactive: 81%.
`Cc1noc2ncnc(NCc3cccc(Cl)c3)c12` was tested, and the survival was inactive: 97%.
With `CCc1c(C)nc2ncnn2c1N1CCC(C(=O)Nc2ccccc2)CC1` the survival was inactive: 63%.
With `Cc1c(C(=O)N2CCC(C(=O)Nc3ccc(F)cc3)CC2)sc2nc[nH]c(=O)c12` the survival was inactive: 62%.
For `Oc1cccc(Nc2ncnc3sc4c(c23)CCCC4)c1`, the survival was inactive: 57%.
In the case of `CS(=O)(=O)N1CCc2cc(C(=O)NCc3ccccc3)ccc21`, the survival is reported as inactive: 81%.
For `CC(C)(C)C(=O)N1CCN(c2nc3c(F)cccc3s2)CC1`, the survival was inactive: 82%.
For `N#Cc1ccccc1/C=C/C(=O)N(CCO)CC(O)c1ccccc1` (stereo not given), the survival was inactive: 88%.
`COc1ccc(-c2cc(C(=O)Oc3ccc(C)c(C)c3)c3ccccc3n2)cc1` was tested, and the survival was active: 40%.
In the case of `CC(C)(C)C(=O)CSc1nc2ccccc2[nH]1`, the survival is reported as inactive: 85%.
`Cc1cccn2c(=O)c3cc(C(=O)NCc4ccccc4Cl)sc3nc12` was tested, and the survival was inactive: 62%.
`O=C(Cn1c(=O)n(Cc2ccc3c(c2)OCO3)c(=O)c2ccc(C(=O)NC3CCCCC3)cc21)Nc1ccccc1F` was tested, and the survival was inactive: 76%.
`CCC(C)NC(=O)c1c(-c2ccccc2)c(-c2ccccc2)nn(C)c1=O` (stereo not given) was tested, and the survival was inactive: 50%.
With `Cc1ccc(C(=O)NC2(C(F)(F)F)C(=O)Nc3c2c(=O)[nH]c(=O)n3CCc2ccccc2)cc1` (stereo not given) the survival was inactive: 74%.
`CCOC(=O)c1cc(-c2ccccc2)n(CCCC(=O)Nc2ccc(C)cc2C)c1C` was tested, and the survival was inactive: 55%.
For `Cc1cccc(-c2nc3nc(C)cc(N4CCN(c5ccccc5)CC4)n3n2)c1`, the survival was inactive: 60%.
`COc1ccc(N2CCN(C(=O)CCn3cnc4onc(-c5ccc(F)cc5)c4c3=O)CC2)cc1` was tested, and the survival was inactive: 118%.
For `COc1ccc(CNCC(=O)N2CCN(C(=O)CNCc3ccc(OC)cc3)CC2)cc1`, the survival was inactive: 70%.
For `COc1ccc(NC(=O)N2CCN(c3cc(-c4noc(C)n4)ccc3C)CC2)c(OC)c1`, the survival was inactive: 128%.
In the case of `COc1cccc(N2CCN(Cc3nnc(-c4ccc5c(c4)OCO5)o3)CC2)c1`, the survival is reported as inactive: 100%.
For `Cc1c(C(=O)NCc2ccccc2Cl)sc2nc3n(c(=O)c12)CCC3`, the survival was inactive: 105%.
`COc1ccc(N(CC(=O)NCc2ccc(C)cc2)S(=O)(=O)c2c(C)[nH]c(=O)[nH]c2=O)cc1` was tested, and the survival was inactive: 118%.
For `COc1ccc(Br)cc1CNC(=O)c1ccc2c(c1)nc1n2CCCCC1`, the survival was inactive: 83%.
For `Cc1cccc(CN2C(=O)c3ccccc3S(=O)(=O)c3ccc(C(=O)N4CCN(c5cc(C)ccc5C)CC4)cc32)c1`, the survival was inactive: 74%.
In the case of `COc1cccc(C(=O)n2nc(-c3ccco3)nc2NCc2cccs2)c1`, the survival is reported as inactive: 72%.
With `CCc1ccc(-c2cc3c(N4CCN(c5ccccc5)CC4)nccn3n2)cc1` the survival was inactive: 49%.
For `NC(N)=N/N=C/c1ccco1`, the survival was inactive: 99%.
For `COc1ccc(-c2nc3cccc(C)n3c2NC(C)(C)C)cc1O`, the survival was inactive: 109%.
`CCOC(=O)Cc1ccc(NC(=O)N2CC(CC)Oc3ccccc32)cc1` (stereo not given) was tested, and the survival was inactive: 58%.
In the case of `CCc1ccc(S(=O)(=O)c2nnn3c2nc(N2CCCC(C)C2)c2cc(Cl)ccc23)cc1` (stereo not given), the survival is reported as inactive: 63%.
For `COc1ccc(OC)c(CNC(=O)C2COc3ccccc3C2)c1` (stereo not given), the survival was inactive: 84%.
`Cc1ccc(-c2nc3c4ccccc4n(Cc4cccc(Cl)c4)c(=O)n3n2)cc1` was tested, and the survival was inactive: 123%.
For `O=C(Nc1cccc(S(=O)(=O)c2cccc(NC(=O)c3ccco3)c2)c1)c1ccco1`, the survival was inactive: 90%.
`Cc1ccc(NCc2n[nH]c(=S)n2C)cc1Cl` was tested, and the survival was inactive: 58%.
For `Cc1cc(Cl)ccc1NC(=O)CN1C(=O)C(=O)c2ccccc21`, the survival was inactive: 71%.
For `O=C(O)CSc1nc2c(c(C(F)(F)F)n1)CCc1ccccc1-2`, the survival was inactive: 96%.
For `CCOc1ccc(C(=O)O)o1`, the survival was inactive: 94%.
In the case of `Cc1nc2ccccc2n1CCc1nc2c3ccccc3nc(SCC(=O)Nc3ccc(C(C)C)cc3)n2n1`, the survival is reported as inactive: 71%.
For `O=C(Nc1nonc1-c1ccc(Br)cc1)c1ccco1`, the survival was inactive: 81%.
In the case of `COc1ccc(NC(=O)c2ccco2)cc1NC(=O)COc1ccc(C)cc1C`, the survival is reported as inactive: 56%.
In the case of `COc1cccc(Cn2cc(S(=O)(=O)c3ccc(C)cc3)c(=O)c3cc4c(cc32)OCO4)c1`, the survival is reported as inactive: 67%.
`Cc1ccc(NC(=O)Cc2ccc(NC(=O)N3CCCCc4ccccc43)cc2)cc1` was tested, and the survival was inactive: 74%.
In the case of `CCCc1ccc(NC(=O)C2CCN(c3cnccn3)CC2)cc1`, the survival is reported as inactive: 62%.
